Several values for one entry are separate records, joined by “and”; a condition that tells them apart may be missing. Equal values may be shown once. Hit rate of the full screen: of about 350,000 compounds, about 31,000 (8.9%) were called active. The shares of active, inactive and inconclusive entries below differ from those in the screen. The call rests on the fitted dose curve; in most records, active means well fitted inhibition curve with a large enough effect; inconclusive means small, poorly fitted or top-dose-only effect; inactive means no such curve, though single readings can be large or run the other way. Potencies of inconclusive entries are doubtful fits and often do not repeat.
The compounds below were run against Histone-lysine N-methyltransferase EHMT2 (Homo sapiens) (UniProt Q96KQ7) (assay: qHTS Assay for Inhibitors of Histone Lysine Methyltransferase G9a). Settings: G9a H3K9 monomethylation, AlphaScreen, 2 h; activity, negative = inhibition: at 59 µM (top of the series) unless noted.
How it was run: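 G9a (20 nM) preincubated 15 min RT with compounds, then 500 nM biotinylated H3K9 peptide and 20 uM SAM added; 2 h RT reaction. Monomethyl-H3K9 product detected by AlphaScreen with anti-H3K9me1 antibody, streptavidin donor and anti-rabbit IgG acceptor beads.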
Further: nearly all actives have a fitted effect of over 75% in size.
On the % scale 0 is the no-effect control and ±100 the full control effect; potency means the concentration at half of the fitted maximal effect; tags describe the fitted curve by direction and shape.

Chain of UniProt Q96KQ7 (Q96KQ7 whole entry, looked up): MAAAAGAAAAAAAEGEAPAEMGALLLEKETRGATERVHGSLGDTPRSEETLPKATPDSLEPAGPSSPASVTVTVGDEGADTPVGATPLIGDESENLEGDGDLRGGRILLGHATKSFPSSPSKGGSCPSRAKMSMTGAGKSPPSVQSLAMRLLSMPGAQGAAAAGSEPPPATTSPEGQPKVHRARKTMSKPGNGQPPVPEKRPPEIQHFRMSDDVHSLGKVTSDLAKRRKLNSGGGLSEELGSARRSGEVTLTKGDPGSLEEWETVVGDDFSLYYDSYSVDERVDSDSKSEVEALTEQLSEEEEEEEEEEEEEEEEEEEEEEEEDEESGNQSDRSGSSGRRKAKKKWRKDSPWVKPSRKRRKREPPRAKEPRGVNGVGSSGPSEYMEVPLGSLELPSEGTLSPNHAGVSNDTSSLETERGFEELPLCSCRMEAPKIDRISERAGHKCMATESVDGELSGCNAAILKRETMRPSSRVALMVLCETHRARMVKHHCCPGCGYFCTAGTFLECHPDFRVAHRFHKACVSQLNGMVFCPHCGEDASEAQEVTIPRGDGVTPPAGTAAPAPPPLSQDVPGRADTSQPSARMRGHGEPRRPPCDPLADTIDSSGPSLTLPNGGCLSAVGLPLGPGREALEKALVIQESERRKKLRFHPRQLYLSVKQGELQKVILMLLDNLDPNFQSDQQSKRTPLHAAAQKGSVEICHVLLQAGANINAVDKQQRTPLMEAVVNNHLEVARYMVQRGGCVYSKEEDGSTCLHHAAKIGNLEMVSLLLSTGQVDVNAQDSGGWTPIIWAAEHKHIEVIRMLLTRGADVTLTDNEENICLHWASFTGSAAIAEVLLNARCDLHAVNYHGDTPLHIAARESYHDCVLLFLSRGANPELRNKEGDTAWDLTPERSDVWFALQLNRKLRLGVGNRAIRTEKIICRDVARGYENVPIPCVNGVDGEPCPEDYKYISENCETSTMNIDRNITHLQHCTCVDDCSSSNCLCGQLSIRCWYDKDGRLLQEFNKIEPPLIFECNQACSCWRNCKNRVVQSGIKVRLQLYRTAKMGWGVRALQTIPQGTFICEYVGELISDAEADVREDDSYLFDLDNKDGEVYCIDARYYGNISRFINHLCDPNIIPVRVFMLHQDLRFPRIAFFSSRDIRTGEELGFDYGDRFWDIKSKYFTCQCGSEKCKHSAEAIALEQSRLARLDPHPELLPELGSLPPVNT

| Compound | Potency | activity, negative = inhibition |
| --- | --- | --- |
| O=C1CN(C(=O)/C=C/c2ccco2)c2ccccc2N1 | inconclusive: 50.1 µM [inhibitor, partial curve, poor fit] |  |
| CNC(=O)CN1C(=O)c2ccccc2S1(=O)=O | inconclusive: 89.1 µM [inhibitor, single point] |  |
| COc1cccc(CNC(=O)CCS(=O)(=O)c2ccc3c(c2)CC(C)N3C(=O)C2CC2)c1 (stereo not drawn) | inactive |  |
| COC(=O)C1=C(C)Nc2ccc(C)cc2S1 | active: 39.8 µM |  |
| Cc1ccc(S(=O)(=O)N2CCCCC2)cc1NS(=O)(=O)c1ccc(Cl)c(C(=O)O)c1 | inconclusive: 50.1 µM [inhibitor, partial curve] |  |
| CCn1nc(C)cc1-c1n[nH]c(=S)n1N | active: 2.82 µM |  |
| CCC(=O)N1CCN(c2ccc(Cl)cc2NC(=O)c2ccc(N3CCCC3)c([N+](=O)[O-])c2)CC1 | inconclusive: 4.47 µM [inhibitor, full curve] |  |
| CCC(=O)N1CCc2cc(S(=O)(=O)NC(CC(C)C)C(=O)NCc3ccc(C)cc3)ccc21 (stereo not drawn) |  | inactive: 9.26% |
| Cc1c(C(=O)O)oc2c1ccc1ccccc12 | inconclusive: 70.8 µM [inhibitor, partial curve, poor fit] |  |
| CCOC(=O)c1cc(CC)sc1/N=C/C1=C(O)CC(C)(C)CC1=O |  | inactive: 24.3% |
| Cc1ccc(-c2csc(NC(=O)c3cccc([N+](=O)[O-])c3C(=O)O)n2)cc1 | inconclusive: 50.1 µM [inhibitor, partial curve] |  |
| CCn1nc([N+](=O)[O-])c2c(-c3nc4ccccc4o3)c(N)n(CCCOC)c2c1=O | inconclusive: 44.7 µM [inhibitor, partial curve] |  |
| COC(=O)c1ccccc1NC(=O)C(C)c1ccc([N+](=O)[O-])cc1 (stereo not drawn) | inconclusive: 14.1 µM [inhibitor, partial curve, poor fit] |  |
| O=[N+]([O-])c1ccc(-c2nc(Nc3ccc(O)cc3)c3ccccc3n2)cc1 | inconclusive: 79.4 µM [inhibitor, single point] |  |
| Cc1cc(C(=O)O)c(CSCc2cc(C(=O)O)oc2C)o1 | inconclusive: 89.1 µM [inhibitor, single point] |  |
| CCOC(=O)c1n[nH]n(-c2cc(Cl)cc(Cl)c2)c1=O |  | inactive: 3.38% [at 102 µM] |
| CC(=O)c1cc2c(cc1NC(=O)Cn1nc(-c3ccc(F)cc3)ccc1=O)OCO2 |  | inactive: -6.97% |
| Clc1cccc(CNCCCSc2ncccn2)c1 | inconclusive: 35.5 µM [inhibitor, partial curve, poor fit] |  |
| Cc1cccc2cc3c(N)c(C(=O)N4CCCc5ccccc54)sc3nc12 | inconclusive: 25.1 µM [inhibitor, single point] |  |
| CC(=O)C1=C(C)OC(N)=C(C#N)C1c1cc2cc(C)c(C)cc2nc1Cl (stereo not drawn) | inconclusive: 11.2 µM [inhibitor, partial curve, poor fit] |  |
| Cc1cccc(CN2CCN(C(=O)c3cccc4ccccc34)CC2)c1 |  | inactive: 22.7% [at 0.501 µM] |
| COC(=O)CSc1nc(N)c2c3c(sc2n1)C(c1ccccc1)SC(c1ccccc1)C3 (stereo not drawn) | inconclusive: 39.8 µM [inhibitor, single point] |  |
| Cc1ccccc1NC(=O)Nc1cccs1 | inconclusive: 35.5 µM [inhibitor, partial curve, poor fit] and inconclusive: 35.5 µM [inhibitor, single point] |  |

| Compound | Potency | activity, negative = inhibition |
| --- | --- | --- |
| COc1ccc(S(=O)(=O)N2CCCCC2)cc1NC(=S)Nc1ccccc1 |  | inactive: -4.44% |
| COc1ccc(-c2noc(CSc3nnc(-c4ccncc4)n3-c3ccc(C)c(C)c3)n2)cc1 |  | inactive: -3.26% |
| CCN(c1ccccc1)S(=O)(=O)c1ccc(OC)c(NC(=O)c2c(C)noc2C)c1 |  | inactive: -38.8% [at 102 µM] |
| O=[N+]([O-])c1ccc(O)c(/C=N/Nc2ccccc2[N+](=O)[O-])c1 | active: 20 µM |  |
| O=C(O)CCN1/C(=C/C=Nc2ccccc2)Oc2ccccc21 | inconclusive: 31.6 µM [inhibitor, single point] |  |
| c1ccc(-c2ccc(-c3nccc4ccccc34)[nH]2)cc1 | inconclusive: 50.1 µM [inhibitor, partial curve, poor fit] |  |
| Cc1ccc2onc(CC(=O)N3CCN(c4cccc(C)c4C)CC3)c2c1 | inconclusive: 7.94 µM [inhibitor, partial curve, poor fit] |  |
| O=C(COC(=O)CC(c1ccccc1)c1ccccc1)Nc1cccc(F)c1 | inconclusive: 3.55 µM [inhibitor, single point] |  |
| Cc1csc(CN(C)C(=O)CC2C(=O)NCCN2Cc2ccc(Cl)c(F)c2)n1 (stereo not drawn) | active: 39.8 µM |  |
| Cc1cc(C)cc(N(CC(=O)NCc2ccco2)S(=O)(=O)c2c(C)noc2C)c1 | inconclusive: 89.1 µM [inhibitor, single point] |  |
| O=C(NC12CC3CC(CC(C3)C1)C2)c1ccc(-c2ccc(Cl)cc2)o1 | active: 20 µM |  |
| CC(=O)Nc1cc(NC(C)=O)cc(C(=O)NCC2(N3CCOCC3)CCCCC2)c1 |  | inactive: 10.2% [at 0.501 µM] |
| COc1ccccc1OCC(=O)Nn1c(=S)[nH]c2ncccc2c1=O |  | inactive: 1.38% [at 102 µM] |
| Cc1nc(NC(=O)COC(=O)c2cccs2)c(Cl)cc1Cl | inconclusive: 56.2 µM [inhibitor, partial curve] |  |
| COCCn1c(SCC(=O)NCc2ccco2)nnc1C(C)C | inconclusive: 39.8 µM [inhibitor, single point] |  |
| Cc1ccccc1C(=O)Nc1cccc(C(=O)OCc2cc(=O)n3nc(C4CC4)sc3n2)c1 |  | inactive: 5.07% [at 12.7 µM] |
| CC(=O)c1ccc(Sc2nnnn2-c2ccccc2)c([N+](=O)[O-])c1 | inconclusive: 17.8 µM [inhibitor, single point] |  |
| Oc1c(Br)cc(/C=N/n2c(-c3ccccc3)n[nH]c2=S)cc1Br | active: 1.26 µM |  |
| O=C(C1Cc2ccccc2CN1S(=O)(=O)c1cccs1)N1CCCCCC1 (stereo not drawn) | inconclusive: 35.5 µM [inhibitor, single point] |  |
| COc1ccc(-c2nc(Cn3c(SCc4ccc(F)cc4)nc4cccnc43)c(C)o2)cc1 | inconclusive: 20 µM [inhibitor, partial curve, poor fit] |  |
| CC(C)N(CC#CCC(O)(c1ccccc1)C1CCCC1)CCO (stereo not drawn) | active: 3.16 µM |  |
| CCn1c(SCC(=O)N2CCOCC2)nc2c([nH]c3ccccc32)c1=O |  | inactive: 10.8% [at 102 µM] |
| COc1ccc(-c2cc(C(F)F)n3ncc(C(=O)Nc4c(C)n(C)n(-c5ccccc5)c4=O)c3n2)cc1 |  | inactive: -4.12% [at 102 µM] |

| Compound | Potency | activity, negative = inhibition |
| --- | --- | --- |
| O=CN1CCN(C2CC(=O)N(c3ccc(Br)cc3)C2=O)CC1 (stereo not drawn) | inconclusive: 56.2 µM [inhibitor, partial curve, poor fit] |  |
| NC(=O)CSc1nnc(-c2ccccc2)c(-c2ccccc2)n1 |  | inactive: -4.1% [at 102 µM] |
| Cc1ccc(S(=O)(=O)NC(CCC(N)=O)C(=O)NCc2ccc3c(c2)OCO3)c(C)c1 (stereo not drawn) | inconclusive: 79.4 µM [inhibitor, single point] |  |
| Cc1ccc([N+](=O)[O-])cc1S(=O)(=O)N1CCn2cccc2C1c1ccc(F)c(F)c1 (stereo not drawn) | inconclusive: 11.2 µM [inhibitor, partial curve, poor fit] |  |
| COC(=O)C1=C(C)Nc2[nH]c(=S)[nH]c(=O)c2C1c1ccc(OC)cc1 (stereo not drawn) | active: 8.91 µM |  |
| COc1ccc(NC(=O)c2c(NC(=O)c3cccc(C)c3)sc3c2CCCC3)cc1 | inconclusive: 5.62 µM [inhibitor, partial curve, poor fit] |  |
| CC1(C)Cc2noc(N)c2C(C)(C)N1O | inconclusive: 10 µM [inhibitor, partial curve, poor fit] |  |
| Cc1cc(C)c2[nH]c(O)c(N=Nc3ccc(C(=O)O)cc3)c2c1 | inconclusive: 100 µM [inhibitor, single point] |  |
| O=C(NC1CCCCC1)C12CC3CC(C1)CC(n1cncn1)(C3)C2 |  | inactive: 45.2% [at 12.7 µM] |
| CCCc1nn2c(=O)cc(CSCC(=O)Nc3ccc(C)cc3)nc2s1 | inconclusive: 25.1 µM [inhibitor, single point] |  |
| COc1ccc2[nH]c(C(=O)N3CCNCC3)cc2c1OC | inconclusive: 70.8 µM [inhibitor, partial curve, poor fit] |  |
| COC(=O)C1=C(C)N(c2ccc(S(N)(=O)=O)cc2)C(=O)C1 | inconclusive: 89.1 µM [inhibitor, single point] |  |
| COc1ccc(-c2nc(NC3=NCCCCC3)sc2C)cc1 | inconclusive: 50.1 µM [inhibitor, partial curve, poor fit] |  |
| Cc1cc(C)n2nc(SCC(=O)NC3CCCCC3)nc2n1 | active: 44.7 µM |  |
| N#CC(/C(=N/S(=O)(=O)c1cccs1)c1ccccc1)c1nc2ccccc2[nH]1 (stereo not drawn) |  | inactive: -7.85% [at 102 µM] |
| CCN(C(=O)CSc1nc2ccc(O)cc2c(=O)n1-c1ccc(OC)c(OC)c1)C1CCS(=O)(=O)C1 (stereo not drawn) | inconclusive: 79.4 µM [inhibitor, single point] |  |
| Cc1ccc(S(=O)(=O)N2CCN(CC(=O)Nc3ccccc3Cl)CC2)cc1 | inconclusive: 7.08 µM [inhibitor, single point] |  |
| Cc1ccc(CNc2ncnc3cc(Cl)ccc23)o1 | inconclusive: 25.1 µM [inhibitor, single point] |  |
| Cc1cc(Br)c(OCC(=O)NN)c2c1CCC2 |  | inactive: -1.55% [at 102 µM] |
| COc1ccc(CNC(c2ccccc2)c2ccc(Cl)cc2)cc1 (stereo not drawn) | active: 5.62 µM |  |
| Clc1ccc(OCCCNCc2ccccc2)c(Br)c1 | active: 12.6 µM |  |
| Cc1cc(O)ccc1C1(c2ccc(O)cc2C)OC(=O)c2ccccc21 | inconclusive: 31.6 µM [inhibitor, single point] |  |

Source: PubChem BioAssay AID504332 (National Center for Advancing Translational Sciences (NCATS), 2011)
